Source: the supplement of paper PMC9446081
Out of some 39,000 compounds screened, about 220 (0.56%) showed activity. Some of the results follow.

Each molecule was assayed on Escherichia coli K-12 BW25113 (assay: relative growth (OD600 normalised to plate interquartile mean) (fraction); higher = less growth inhibition, active = 0.2 or less). Conditions: 50 µM; LB; incubation time: overnight (16-24 h).
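Also: static incubation at 37 °C against the wild-type strain, values averaged over two biological replicates.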

| SMILES | relative growth |
| --- | --- |
| C[C@@H]1CCCCO[C@@H](CN(C)C(=O)C2CCCCC2)[C@H](C)CN([C@H](C)CO)C(=O)c2cc(NC(=O)Nc3ccc(C(F)(F)F)cc3)ccc2O1 | inactive: 1.01 |
| CCC(=O)NO | inactive: 1.02 |
| C[C@@H]1CN([C@@H](C)CO)C(=O)c2cc(NC(=O)Nc3ccc(F)cc3)ccc2O[C@H]1CN(C)Cc1ccc(Cl)c(Cl)c1 | inactive: 0.99 |
| Cc1noc(C)c1S(=O)(=O)N(C)C[C@H]1OCCCC[C@@H](C)Oc2ccc(NC(=O)Nc3ccccc3)cc2C(=O)N([C@@H](C)CO)C[C@H]1C | inactive: 1.02 |
| C[C@H]1CN([C@@H](C)CO)S(=O)(=O)c2ccc(C#CCN(C)C)cc2O[C@H]1CN(C)S(=O)(=O)c1cccc(F)c1 | inactive: 1.03 |
| Cc1ccc(S(=O)(=O)N(C)C[C@@H]2Oc3ccc(NC(=O)CCN4CCOCC4)cc3CC(=O)N([C@@H](C)CO)C[C@@H]2C)cc1 | inactive: 1.01 |
| CCN(CC)c1ccc(N2CC=C[C@@]34O[C@@H]5C=CCOC(=O)[C@@H]5[C@H]3C(=O)N(CCCCCO)[C@@H]4C2=O)cc1 | inactive: 0.97 |
| C[C@H](CO)N1C[C@H](C)[C@@H](CN(C)S(C)(=O)=O)OCc2cn(nn2)CCCC1=O | inactive: 1.03 |
| C[C@@H]1CCCCO[C@@H](CN(C)S(C)(=O)=O)[C@@H](C)CN([C@@H](C)CO)C(=O)c2cc(NS(C)(=O)=O)ccc2O1 | inactive: 0.994 |
| CCOc1ccccc1C(N)=O | inactive: 0.926 |
| CC(=O)N1[C@H](CNC(=O)CN2CCOCC2)[C@H](c2ccccc2)[C@@H]1CO | inactive: 0.963 |
| C[C@@H](O)C#Cc1cnc2c(c1)C(=O)N([C@@H](C)CO)C[C@H](C)[C@H](CN(C)Cc1cncnc1)O2 | inactive: 0.984 |
| C[C@H]1CN([C@@H](C)CO)C(=O)c2cc(NS(=O)(=O)c3ccccc3)ccc2O[C@@H]1CN(C)Cc1ccncc1 | inactive: 1.01 |
| Cc1noc(C)c1S(=O)(=O)Nc1ccc2c(c1)C(=O)N([C@H](C)CO)C[C@H](C)[C@H](CN(C)S(C)(=O)=O)O2 | inactive: 0.994 |
| COc1ccc(NC(=O)Nc2ccc3c(c2)C(=O)N([C@@H](C)CO)C[C@H](C)[C@@H](CN(C)S(=O)(=O)c2ccc(Cl)cc2)OCCCC[C@@H](C)O3)cc1 | inactive: 1.02 |
| Cc1noc(C)c1NC(=O)N(C)C[C@@H]1Oc2ncc(C#CCN(C)C)cc2C(=O)N([C@@H](C)CO)C[C@@H]1C | inactive: 0.987 |
| C[C@@H]1CN([C@H](C)CO)C(=O)c2cc(NS(=O)(=O)c3cccs3)ccc2O[C@H]1CN(C)S(=O)(=O)c1ccc(F)cc1 | inactive: 0.961 |
